In ChEMBL document CHEMBL4888484, “Replenishing the malaria drug discovery pipeline: Screening and hit evaluation of the MMV Hit Generation Library 1 (HGL1) against asexual blood stage Plasmodium falciparum ,using a nano luciferase reporter read-out” (2022):
Among all 150,000 compounds or so, about 540 (0.36%) showed an effect of 50% or more. This is one part of the list.

Test system: Plasmodium falciparum
Test: Primary screen in NF54 nanoGlo assay, in single point, at 2uM, 72h; a lower Z score goes with more inhibition
Format: functional, Erythrocyte
Details: timepoint 72 hour

| Structure (SMILES) | % Inhibition [%] | Z score |
| --- | --- | --- |
| Cc1ncsc1CCC(=O)NCc1nnc2n1CCC2 | 7 | -0.93 |
| Cn1ncc(NC(=O)Cn2cc(-c3ccc4ccccc4n3)cn2)n1 | -11 | 1.51 |
| COc1ccc(C[C@H](N)c2nc(C3CC3)nn2C2CCN(C)CC2)cc1 | 1 | -0.13 |
| OC1CCN(Cc2ccc(CNCc3ccco3)cc2)CC1 | -8 | 1.12 |
| Cc1ccc(CNC(=O)N2CCCC[C@@H]2CCO)c(N2CCCC2)c1 | 0 | -0.04 |
| O=C(c1ccncc1)N1CCc2[nH]c(-c3ccccc3)nc2C1 | -11 | 2.13 |
| CCNC(=O)N(CCN(CC)CC)CC(=O)N1CCCN(c2ccc(-c3ccc(OC)cc3)nn2)CC1 | -12 | 2.11 |
| O=C(NCCc1ccccc1)N1CC[C@@]2(C1)Nc1cccnc1N=C2NC1CCCC1 | 37 | -4.15 |
| CC(C)Cn1ncnc1CN1C[C@H](CO)Oc2ccccc21 | -2 | 0.2 |
| CC(C)(C)c1n[nH]cc1CNC1CCN(C2CC2)CC1 | 3 | -0.58 |
| Cc1conc1NS(=O)(=O)c1cc(Cl)ccc1OCCC1CC1 | -3 | 0.46 |
| CCN1CCC[C@@H]1CNCc1ccco1 | -5 | 0.88 |
| O=C(c1csc(-c2cccs2)n1)N1CCCOCC1 | -8 | 1.45 |
| CC(C)C1(c2ccccc2)CN(C(=O)CCc2cncc(F)c2)C1 | -8 | 1.03 |
| COc1ccc(CN(C(=O)c2ccc(F)cc2)c2nc3[nH]c(C)c(Cc4ccccc4)c(=O)n3n2)cc1 | -12 | 1.99 |
| O=C(NC1CC1)[C@H](Nc1cccc2c1OCCO2)c1ccccc1 | -1 | 0.17 |
| NC(=O)[C@@H](c1ccccc1)N1CCN(c2nccn3cncc23)CC1 | 4 | -0.77 |
| CC(C)Oc1ccc(N2C[C@@H](C(=O)NCCn3cnnn3)CC2=O)cc1 | -13 | 2.23 |
| Cc1ccc(CNC(=O)N2C[C@@H]3CC[C@H]2CN(CC(=O)N(C)C)C3)cc1 | -8 | 1.48 |
| C[C@@H](C(=O)N(CCC#N)c1ccccc1)N(C)CCc1ccncc1 | -13 | 1.12 |
| O=C(NCc1cccc(Cn2cnc3ccccc32)c1)c1cncc(Br)c1 | -8 | 1.5 |

| Structure (SMILES) | % Inhibition [%] | Z score |
| --- | --- | --- |
| O=C(CC1CCOCC1)Nc1cc(Cl)cc(Br)c1O | -12 | 1.66 |
| CC[C@@]1(C2CCN(C(=O)Cc3ccccc3C)CC2)NC(=O)N(CCc2scnc2C)C1=O | -5 | 0.7 |
| CC(=O)NC(C)(C)C(=O)NCc1cc(C)[nH]n1 | 0 | 0.02 |
| CCCn1cnnc1COC(=O)CCc1c[nH]c2ccccc12 | 1 | -0.09 |
| Cc1ccoc1CN[C@@H]1CCOc2c(F)ccc(F)c21 | 0 | -0.02 |
| Cc1cc(C(=O)N(Cc2cccnc2)Cc2ccco2)nc(O)n1 | 5 | -0.81 |
| CCCN1CCC(NC(=O)c2cc3c(s2)CCCCC3)CC1 | -9 | 1.28 |
| Cc1nccn1CCCC(=O)NCCOc1ccc(C(C)(C)C)cc1 | -10 | 1.26 |
| Cc1ccc(F)cc1C(=O)N(C)C[C@H](C)C(=O)O | -14 | 1.71 |
| CCCNC(=O)[C@H](C)NC(=O)Nc1ccc(C)cc1 | -17 | 2.25 |
| CN(CC#N)S(=O)(=O)c1cc(Br)cc2c1OCCNC2=O | -1 | 0.19 |
| C[C@@H](c1ncnn1Cc1ccccc1)N1CCCCC1 | -23 | 3.07 |
| N#C[C@@H]1CN(c2nc3ccccc3o2)CCO1 | -4 | 0.37 |
| Cc1ccc(N2CCC[C@@H]2COC(=O)c2ccn3cncc3c2)nn1 | -7 | 0.84 |
| O=C1C[C@H](N2CCCCCC2)C(=O)N1c1ccc(Br)cc1Br | -10 | 1.65 |
| CC1(C)C(=O)N(Cc2ccccc2)CCN1S(=O)(=O)N1CCOCC1 | 17 | -2.21 |
| COc1cccc(NC(=O)NCC(F)(F)F)c1Br | 5 | -0.61 |
| Cc1ccc(-c2noc(-c3cccn3CC(=O)N(C)C3CCCCC3)n2)cc1 | 3 | -0.36 |
| O=C(O)C1CCC(Nc2ccc(Cc3nnc4n3CCCCC4)cc2)CC1 (stereo not drawn) | -10 | 0.94 |
| C[C@]1(C(=O)O)CCCN(Cc2ccc3nsnc3c2)C1 | -11 | 2.25 |
| Cc1nncn1CCN1CCC[C@H](c2nc3ccccc3n2C)C1 | -1 | 0.1 |

| Structure (SMILES) | % Inhibition [%] | Z score |
| --- | --- | --- |
| O=C(N[C@H]1CCCN(C(=O)C2CCC2)C1)c1ccc2ccccc2c1 | -26 | 2.61 |
| O=C(CCCn1cccn1)N1CCC(Cn2ccnc2)CC1 | -4 | 0.41 |
| CCCCc1cc(NC(=O)c2ccc(C#N)cn2)on1 | 1 | -0.14 |
| C#CCNC(=O)[C@H](C#N)c1nc(C)c(C)s1 | 32 | -0.92 |
| C[C@H]1CN(C)c2ccccc2CN1C(=O)NCc1ccccc1S(N)(=O)=O | -16 | 2.43 |
| Cc1cccc(Cn2c(-c3cnccn3)n[nH]c2=O)c1 | -4 | 0.56 |
| Nc1nc2c(s1)[C@@H](c1ccccc1OCc1cccc(Cl)c1)CC(O)=N2 | 24 | -2.71 |
| Cc1cc(-c2nc(-c3ccc(F)cc3)no2)c(C)n1CC(=O)NCc1ccc2c(c1)OCO2 | -4 | 0.76 |
| Cc1cn(C)nc1CN1C[C@@H](N)Cc2ccccc21 | -9 | 0.97 |
| Cc1c(-c2nnc(C(=O)NCCCN(C)C3CCCCC3)o2)oc2c(C)cccc12 | 15 | -1.73 |
| CN(c1cc(CO)c(F)cn1)C1CCC1 | -16 | 1.72 |
| Cc1nc(-n2cnnc2)ccc1-c1ccc(F)c2cccnc12 | -7 | 1.28 |
| O=C(CN[C@@H](Cc1ccccc1)c1cccs1)N1CCOCC1 | -3 | 0.3 |
| Cc1ccsc1CN(Cc1ccccc1)C(=O)CN(C(=O)C1CCCCC1)C1CCCCC1 | -17 | 1.9 |
| CCOC(=O)c1cc2nc(C)n(CC)c2cc1N(CC)C(C)=O | -32 | 3.79 |
| CCOc1ncccc1C(=O)Nc1cnn2c1NCCC2 | -7 | 1.28 |
| CO[C@H]1COC[C@@H]1Nc1ncc(C(F)(F)F)cc1Cl | -6 | 0.78 |
| Cn1ncnc1-c1ccc(CCC(C)(C)O)cc1 | 8 | -1.08 |
| CC(C)[C@@H]1C[C@@H](CNC(=O)NC2CCC(=O)N(C)C2)c2ccccc21 (stereo partly drawn) | -9 | 1.43 |
| CCc1nnc2ccc(-c3noc(Cc4cc(OC)cc(OC)c4)n3)cn12 | -7 | 1.13 |
| COCCCN(Cc1ccco1)C[C@H](O)COC(C)(C)C | 2 | -0.27 |

| Structure (SMILES) | % Inhibition [%] | Z score |
| --- | --- | --- |
| COc1ccc2c(c1)C(N1CCN(C(=O)c3cc(F)cc(F)c3)[C@@H](C)C1)=Nc1ccccc1O2 | -5 | 0.88 |
| COCCCN1C(=O)CC(CC(=O)N2CCCC(c3ccccc3C)C2)(c2ccccc2Cl)C1=O (stereo not drawn) | -2 | 0.29 |
| C=CCN1CCC[C@H]1C(=O)N(C)CC1(C)COC1 | 7 | -0.93 |
| CC(=O)c1cccc(NC(=O)N2C[C@H](c3nc(C)no3)C3(CCOCC3)C2)c1 | 1 | -0.13 |
| CCO[C@H]1CN(Cc2noc(-c3ccccc3)n2)C[C@@H]1O | -4 | 0.85 |
| Cc1c(C(=O)N2CCCC3(CCN(C)CC3)CC2)nnn1Cc1ccccc1 | -8 | 1.2 |
| CN(CCCn1cccn1)C(=O)[C@@H]1CCCC[C@@H]1C(=O)N1CCCC1 | -10 | 2.01 |
| Cc1cc(C)c([C@@H](O)Cn2ccn3nc(-c4cccc(Br)c4)cc3c2=O)c(C)c1 | -10 | 1.11 |
| COc1ccccc1CNC(=O)CC(C)(C)CC1=NS(=O)(=O)c2ccccc2N1 | 11 | -1.29 |
| CCCn1ncc([C@H]2C[C@@H](NC(C)=O)C[C@@H](c3ccc(Cl)cc3)O2)c1C | 4 | -0.57 |
| Nc1nc2n(n1)[C@H](c1ccc(Cl)cc1)CC(=O)N2 | 35 | -3.95 |
| CC(C)CN1C[C@H](C(=O)Nc2ccc(F)cc2)C[C@H](C(=O)NC2CCCC2)C1 | -11 | 1.29 |
| C[C@H]1CC2(CCNCC2)CN1C(=O)c1csc2ccccc12 | 2 | -0.28 |
| CC1(C)CN(C(=O)C2(c3ccc(Cl)c(Cl)c3)CCC2)CC[C@@H]1N | -7 | 1.24 |
| CCN1CN(S(=O)(=O)c2c[nH]c3ncc(Br)cc23)CC1=O | -4 | 0.56 |
| COc1ccc(CCNC(=O)Cn2ccc3ncccc3c2=O)cc1 | -15 | 1.52 |
| O=C(C[C@H]1Cc2c(n(Cc3ccccc3)c(=O)[nH]c2=O)NC1=O)Nc1ccc(Cl)c(Cl)c1 | 32 | -3.58 |
| Cc1cccnc1CNC(=O)Nc1nccn(C)c1=O | -6 | 0.65 |
| CCc1nccn1C[C@H](C)N1CC(Oc2ccccc2)C1 | -4 | 0.76 |
| CN(C(=O)c1cc(C(C)(C)C)cc(C(C)(C)C)c1)C(C)(C)C | -5 | 0.84 |
| O=C(COc1ccc(Br)cc1)Nc1ccc(S(=O)(=O)Nc2cccc(C(F)(F)F)c2)cc1NC(=O)COc1ccc(Br)cc1 | 30 | -3.01 |
